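Exposure lasted 48 hours, with cells grown in 96-well plates and compounds tested at five concentrations. GI50 = concentration required for 50% inhibition of growth.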 The source made the active and inactive calls. Rule as the data show it: active = GI50 up to about 1.1 µM and inactive = higher.
System: NCI-H322M
Assay: DTP human tumour cell line panel, 48 h

Compound	GI50
CC(C)CC1c2[nH]c3ccccc3c2C[C@H]2C(=O)NC(Cc3c[nH]c4ccccc34)C(=O)N12 (some centres not stated)	inactive: 18.3 µM
N=C(CC(=O)Nc1ccccn1)c1ccccc1	inactive: > 100 µM
CN(C)CCNC(=O)c1ccc(Cl)c2cc3ccccc3nc12	active: 0.82 µM
OCCCNCc1ccncc1	inactive: > 100 µM
CN1CC[C@@]2(c3cccc(O)c3)CC(=O)/C(=C/c3ccc(Cl)c(Cl)c3)[C@H]1C2	inactive: 4.03 µM
COC(=O)[C@@]1(C)CCC[C@]2(C(=O)O)C3Cc4occc4[C@H](C)[C@@H]3CCC21 (some centres not stated)	inactive: 68.9 µM
CCN(CC)CC(O)CNc1ccc(NCC(O)CCl)c2c1C(=O)c1ccccc1C2=O (configuration not stated)	inactive: 7.87 µM
Cc1ccc(/C=C2\Cc3cc(C)c(C)cc3C2=O)c(C(=O)O)c1	inactive: 45.4 µM
Brc1ccc2c(c1)C1=C(CO2)Cc2ccccc2O1	inactive: 18 µM
C[C@@H](C(=O)O)N1C(c2ccco2)=C(/C(C=O)=C\c2ccco2)C(=O)/C1=C\c1ccco1	inactive: > 100 µM
CCOC(=O)COc1cc(-c2ccccc2)nc2cc(F)ccc12	inactive: > 100 µM
CC(=O)NNc1nc(C)c(C(=O)/C=C/C=C/c2ccccc2)s1	inactive: > 100 µM
CC(=O)/C(=C\c1ccccc1)C(=O)Nc1ccccc1	inactive: > 100 µM
O=c1[nH]c(=O)n(C2CC(O)C(CO)O2)cc1C#Cc1c(F)c(F)c(F)c(F)c1F (configuration not stated)	inactive: > 100 µM
CC1(C)OP23(NC(=O)OC2(C(F)(F)F)c2ccccc2O3)OC1(C)C (configuration not stated)	inactive: > 100 µM
CN(C)c1ccc(/C=C/C=c2/c3ccccc3n3c2cc(-c2ccccc2)[n+]3C)cc1	active: 0.312 µM
O=C1C=CC=CC2CC=C[C@@H](O)C12 (some centres not stated)	inactive: 26.4 µM
CC1CCCCNC1=S (configuration not stated)	inactive: > 10 µM
COc1cc(OC)c2nc3occc3c(OC)c2c1	inactive: > 100 µM
COc1ccc2nc3ccc(OC)cc3c(SCCO)c2c1	inactive: 38.6 µM
CCCC(CCC(=O)O)(CCC(=O)O)[N+](=O)[O-]	inactive: > 100 µM
c1ccc(SCCCC(Sc2ccccc2)Sc2ccccc2)cc1	inactive: > 100 µM
S=P(N1CCCC1)(N1CC1)N1CC1	inactive: > 100 µM
Cc1n[nH]c(=O)n1/N=C\c1ccccc1	inactive: > 100 µM

Compound	GI50
CS/C(=N\c1nccs1)NC(=O)c1cccc(Cl)c1	inactive: > 100 µM
NNC(=O)Cn1c2ccc(Br)cc2c2nc3ccccc3nc21	inactive: 3.75 µM
N=C(N)N/N=C(\c1ccc(F)cc1)c1ccc(C(F)(F)F)cc1	active: 0.418 µM
Cc1ccc(S(=O)(=O)N/N=C2/C3C(CC2(C)C)C2(C)CCCC3(C)C2O)cc1 (configuration not stated)	inactive: 19.1 µM
Cc1c2ncccc2c(C)c2c1[nH]c1ccccc12	inactive: 8.75 µM
O=C(/C=C/c1ccccc1Cl)c1ccc(Cl)c(Cl)c1	inactive: 41.8 µM
OCC(CCc1c[nH]c2ccccc12)c1c[nH]c2ccccc12 (configuration not stated)	inactive: 16.3 µM
CC(=O)N1C(Nc2ccccn2)CCN1c1ccccc1 (configuration not stated)	inactive: > 10 µM
CN1CN(C(=O)N2CN(C)C(=O)N(C)C2)CN(C)C1=O	inactive: > 100 µM
CCC(C)c1cnc(CC(C)C)c(=O)[nH]1 (configuration not stated)	inactive: > 100 µM
OC(c1ccccc1)(c1ccccc1)c1ccccn1	inactive: 77.6 µM
COC(=O)/C(=N/Nc1cccc(Cl)c1)C(C(=O)C(=O)Nc1cccc(Cl)c1C)c1nc2ccccc2nc1C (configuration not stated)	inactive: > 100 µM
O=C(/C=C/c1ccc(O)c(O)c1)c1cc(O)cc(O)c1	inactive: 15.3 µM
O=C(Nc1ccccc1C(=O)NCc1ccccc1)/C(=C/c1ccccc1)NC(=O)c1ccccc1	inactive: > 100 µM
O=C(N/N=C(/c1nc2ccc(Cl)cc2[nH]c1=O)C(O)c1ccc(Cl)cc1Cl)c1ccncc1 (configuration not stated)	inactive: > 100 µM
CC(=O)OC(CN1CCN(c2ccccn2)CC1)Cn1sc2nc(C)cc(C)c2c1=O (configuration not stated)	inactive: 18.1 µM
COc1ccccc1/C=C1\CCC(CN(C)C)C1=O (configuration not stated)	inactive: 17.5 µM
BrC1=CCC23CC=C(Br)[C@H]4CC2(COC3)C[C@@H]1O4 (some centres not stated)	inactive: 62.7 µM
CCOC(=O)C1=C(C)NC(=O)NC1c1coc2cc(C)cc(C)c2c1=O (configuration not stated)	inactive: > 53.6 µM
COc1ccc(CCCNC(=O)Cc2cc(OC)c(OC)cc2CO)cc1OC	inactive: > 100 µM
Oc1c(Cl)cc2cc1-c1cc(cc(Cl)c1O)CCc1c(cc(Cl)c(O)c1Cl)-c1cc(Cl)c(c(Cl)c1O)/C=C\2	inactive: 8.18 µM
Cc1nc2ccc(NC3OC(CO)C(O)C(O)C3O)cc2c(=O)n1-c1ccccc1 (configuration not stated)	inactive: > 100 µM
NNc1nnc(-c2nnc(NN)o2)o1	inactive: > 10 µM

— ChEMBL document CHEMBL1201862, “PubChem BioAssay data set” (2004)
